In the experiment the test system is NCI-H322M lung. The experiment can be described thus: NCI-60 cell line screen, 48 h.

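Five concentrations, 48 hours, 96-well plates. GI50: concentration for 50% inhibition of growth. Definition used: TGI = concentration required for complete inhibition of growth.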

For the molecule `COc1cc(/C=C/C(=O)c2ccc(S(=O)(=O)NCCNc3nc(N(C)C)nc(N4CCOCC4)n3)cc2)cc(OC)c1OC`, the GI50 is 7.82 µM and the TGI turned out to be 21.1 µM.
As to `CN(C)CCn1c2ccccc2c2nc3cc4ccccc4cc3nc21`, the GI50 is 2.74 µM and the TGI turned out to be 15.1 µM.
